Measurements reported in publication PMC4475061 (2015).

Biological target: T1, ULK3(MIT)2 (residues 277–449) (human, UniProt Q6PHR2 277-449)
T1 chain: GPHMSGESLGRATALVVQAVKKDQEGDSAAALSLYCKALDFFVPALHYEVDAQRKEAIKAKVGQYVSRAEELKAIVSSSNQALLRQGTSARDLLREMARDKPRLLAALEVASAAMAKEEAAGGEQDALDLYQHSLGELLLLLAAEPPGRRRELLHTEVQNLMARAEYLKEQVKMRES
Assay: FP

B1: IST1 MIM1 peptide ([…]), fluorescently labeled (peptide)
chain: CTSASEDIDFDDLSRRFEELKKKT
modifications: Oregon Green 488 maleimide on the non-native N-terminal cysteine
Question: How did the Kd turn out when B1 was run?
Answer: 560 nM
